{
  "source": "PubChem BioAssay AID2675",
  "about": "(National Center for Advancing Translational Sciences (NCATS), 2010)",
  "note": "Hit rate of the full screen: of about 280,000 compounds, about 100 (0.036%) were called active. Inconclusive results, whose numbers are uncertain, are shown with a selection of clear calls. Calls come from the whole dose curve; as a rule, active = well fitted inhibition curve with a large enough effect in the signal ratio, with a control signal flat (not every such curve was filed as active); inconclusive = small, poorly fitted or top-dose-only effect, or effect the other way, or a change in a side signal; inactive = no such curve, though single readings can be large or run the other way; the % refers to the signal ratio. Potencies beside an inconclusive call are fits to weak or partial responses and may not hold up. “Side channel” marks fits to a control or component signal instead of the main read-out. % is set by controls: 0 for no effect and ±100 for the full control effect; potency is the fitted concentration of half-maximal effect; tags give direction and shape of the fitted curve or compound fluorescence and quenching.",
  "data": [
    {"molecular_target": "Muscleblind-like protein 1 (Homo sapiens) (UniProt Q9NR56)", "sequence (Q9NR56 whole entry, looked up)": "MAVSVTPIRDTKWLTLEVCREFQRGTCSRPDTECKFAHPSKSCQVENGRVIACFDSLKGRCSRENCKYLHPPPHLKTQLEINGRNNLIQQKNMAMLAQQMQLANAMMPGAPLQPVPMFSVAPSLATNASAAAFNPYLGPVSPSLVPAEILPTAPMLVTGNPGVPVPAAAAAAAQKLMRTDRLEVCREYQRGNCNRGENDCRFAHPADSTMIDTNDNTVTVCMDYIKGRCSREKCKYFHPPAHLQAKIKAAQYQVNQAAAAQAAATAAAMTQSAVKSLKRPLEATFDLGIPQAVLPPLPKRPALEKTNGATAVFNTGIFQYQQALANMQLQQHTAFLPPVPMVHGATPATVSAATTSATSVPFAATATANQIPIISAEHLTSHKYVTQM", "assay": "qHTS Assay for Inhibitors of MBNL1-poly(CUG) RNA binding", "details": "TR-FRET MBNL1-His/biotin-(CUG)12 binding, 665/545 ratio; activity change, negative = inhibition: at 57.5 µM (top of the series)", "outline": "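Compounds (final 92 nM to 58 uM) are added to His-tagged MBNL1 and biotin-(CUG)12, then terbium anti-His antibody and streptavidin-XL665 (5 nM final). After 60 min at room temperature, the 665/545 nm ratio is read.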", "values": [
      {"smiles": "C(=N\\N1CCOCC1)/c1nc(-c2ccccc2)n2ccccc12", "Potency": "inconclusive: 25.1 µM [quencher, partial curve]"},
      {"smiles": "Cc1ccc(-c2noc(CSc3nnc(Cc4cccs4)n3-c3ccccc3)n2)cc1", "Potency": "inconclusive: 5.62 µM [quencher, side channel, full curve, poor fit]"},
      {"smiles": "O=C(Nc1nccs1)c1cccc(S(=O)(=O)N2CCOCC2)c1", "activity change, negative = inhibition": "inactive: 2.61%"},
      {"smiles": "O=C(Nc1ccc(S(=O)(=O)Nc2ncccn2)cc1)c1cc([N+](=O)[O-])ccc1Cl", "Potency": "inconclusive: 22.4 µM [quencher, partial curve]"},
      {"smiles": "CCOC(=O)C1=C(c2ccccc2)NC(=S)NC1c1cccc([N+](=O)[O-])c1", "note": "(configuration not stated)", "activity change, negative = inhibition": "inactive: -4.36%"},
      {"smiles": "CC(O)CNc1ccc(-c2n[nH]c(=O)c3ccccc23)cc1[N+](=O)[O-]", "note": "(configuration not stated)", "Potency": "inconclusive: 11.2 µM [quencher, side channel, partial curve]"},
      {"smiles": "COc1cccc(/C=C/C(=C2/C(=O)N(c3ccccc3)N=C2C)c2ccccc2)c1OC", "Potency": "inconclusive: 3.16 µM [fluorescent, side channel, partial curve]"},
      {"smiles": "COc1ccc(OC)c(C(=O)NC(CC(N)=O)c2ccc(NCCOc3ccccc3)c([N+](=O)[O-])c2)c1", "note": "(configuration not stated)", "Potency": "inconclusive: 22.4 µM [quencher, side channel, single point]"},
      {"smiles": "c1ccc2c(Nc3ccc4c(c3)OCCO4)c3c(nc2c1)CCCC3", "Potency": "inconclusive: 12.6 µM [quencher, side channel, partial curve]"},
      {"smiles": "CN1CCc2c(sc3nc(SCC(=O)N4CCOCC4)nc(N)c23)C1", "activity change, negative = inhibition": "inactive: 9.71%"},
      {"smiles": "CC1(C)C(=O)OC(/C=C\\c2cccc([N+](=O)[O-])c2)C(C)(C)C1=O", "note": "(configuration not stated)", "Potency": "inconclusive: 15.8 µM [quencher, side channel, partial curve]"},
      {"smiles": "CN(C)c1nc(N(C)C)nc(N(C#N)CCOc2ccccc2)n1", "activity change, negative = inhibition": "inactive: 0.0875%"},
      {"smiles": "COc1ccc(NC(=S)NN2CCN(C)CC2)cc1OC", "Potency": "inconclusive: 22.4 µM [fluorescent, side channel, single point]"},
      {"smiles": "Cc1ccc(C=C2C(=O)c3ccccc3C2=O)s1", "Potency": "inconclusive: 12.6 µM [quencher, side channel, partial curve]"},
      {"smiles": "Cc1ccc(N(CC(O)CN2CCCCC2)S(=O)(=O)c2ccccc2)cc1", "note": "(configuration not stated)", "activity change, negative = inhibition": "inactive: -4.07%"},
      {"smiles": "CC(C)c1ccc(S(=O)(=O)N2CCN(C(=O)c3ccc(N4CCCC4)c([N+](=O)[O-])c3)CC2)cc1", "activity change, negative = inhibition": "inactive: -3.33%"},
      {"smiles": "O=C1C2=C(Nc3ccccc3SC2c2ccco2)c2ccccc21", "note": "(configuration not stated)", "Potency": "inconclusive: 31.6 µM [quencher, side channel, single point]"},
      {"smiles": "O=C(N/N=C/C(Cl)=C\\c1ccccc1)c1cnccn1", "Potency": "inconclusive: 15.8 µM [quencher, side channel, partial curve]"},
      {"smiles": "O=C1C(=C(O)c2ccccc2)C(=O)c2ccccc21", "Potency": "inconclusive: 28.2 µM [quencher, side channel, partial curve]"},
      {"smiles": "Cc1ccc(Cn2c(=N)c(C(=O)NC3CCCC3)cc3c(=O)n4ccccc4nc32)cc1", "Potency": "inconclusive: 2.82 µM [quencher, side channel, partial curve]"},
      {"smiles": "COc1cc(OC)cc(C(=O)N2CCC(N3CCN(c4ccccc4OC)CC3)CC2)c1", "Potency": "inconclusive: 2 µM [fluorescent, side channel, full curve, poor fit]"},
      {"smiles": "COc1ccc(-c2c(C)c3ccc(O)cc3oc2=O)cc1OC", "Potency": "inconclusive: 11.2 µM [quencher, side channel, partial curve]"},
      {"smiles": "CCC(c1nnnn1C1CCCC1)N1CCN(C(=O)c2ccco2)CC1", "note": "(configuration not stated)", "Potency": "inconclusive: 200 µM [inhibitor, single point]"},
      {"smiles": "Nc1ccc2nc3c(=O)[nH]c(=S)[nH]c3nc2c1", "Potency": "inconclusive: 14.1 µM [quencher, side channel, partial curve]"},
      {"smiles": "CC1(C)OC(=O)C(=NNc2ccc(Br)cc2)C(=O)O1", "Potency": "inconclusive: 11.2 µM [quencher, side channel, partial curve]"},
      {"smiles": "O=C(c1ccc2nsnc2c1)N1CCN(c2ccc([N+](=O)[O-])cc2)CC1", "Potency": "inconclusive: 10 µM [quencher, side channel, partial curve]"},
      {"smiles": "Cc1ccsc1/C=N/Nc1ncc(Cl)cc1Cl", "activity change, negative = inhibition": "inactive: 2.62%"},
      {"smiles": "O=C(CSc1nc(-c2ccc(F)cc2)cc(C(F)(F)F)n1)NCc1ccco1", "Potency": "inconclusive: 50.1 µM [inhibitor, single point]"},
      {"smiles": "Cn1c(N)c(N=Nc2ccc(S(N)(=O)=O)cc2)c(=O)n(C)c1=O", "Potency": "inconclusive: 7.94 µM [quencher, full curve]"},
      {"smiles": "Cn1cc([N+](=O)[O-])c(C(=O)NNC(=O)c2ccc([N+](=O)[O-])cc2)n1", "Potency": "inconclusive: 14.1 µM [quencher, side channel, partial curve]"},
      {"smiles": "Cc1nc(-c2ccc(NC(=O)c3ccccc3)cc2)cs1", "activity change, negative = inhibition": "inactive: -9.88%"},
      {"smiles": "O=C(C[n+]1ccc(/C=N/O)cc1)N(Cc1ccccc1)Cc1ccccc1", "Potency": "inconclusive: 7.94 µM [quencher, side channel, partial curve]"},
      {"smiles": "COc1ccc(CN2CCNC(=O)C2CC(=O)NC2CCCC2)c(C)c1C", "note": "(configuration not stated)", "activity change, negative = inhibition": "inactive: 3.55%"},
      {"smiles": "CCOc1ccc2c(c1)n([O-])c1c([n+]2=O)CCCC1", "Potency": "inconclusive: 25.1 µM [quencher, side channel, partial curve]"},
      {"smiles": "COc1ccc(C(=O)/C=C/Nc2cc(C)on2)c(OC)c1", "Potency": "inconclusive: 31.6 µM [quencher, side channel, single point]"},
      {"smiles": "O=[N+]([O-])c1ccc(Cl)c(/C=N/n2c(-c3ccncc3)n[nH]c2=S)c1", "Potency": "inconclusive: 1.58 µM [quencher, side channel, full curve]"},
      {"smiles": "COc1cc(C2C(C(=O)c3ccc(C)o3)=C(O)C(=O)N2c2cc(C)on2)cc(Br)c1O", "note": "(configuration not stated)", "Potency": "inconclusive: 12.6 µM [quencher, side channel, partial curve]"},
      {"smiles": "O=C1c2cccc3cccc(c23)C(=O)N1/N=C/c1ccc(O)cc1O", "Potency": "inconclusive: 8.91 µM [quencher, partial curve]"},
      {"smiles": "Cc1[nH]c2ccccc2c1CCN(Cc1cccnc1)C(=S)NC(C)(C)C", "activity change, negative = inhibition": "inactive: -4.55%"},
      {"smiles": "Cc1oc2c(C)c3oc(=O)c(CCC(=O)O)c(C)c3cc2c1-c1ccccc1", "activity change, negative = inhibition": "inactive: 20.2%"},
      {"smiles": "Cc1nonc1OC(C)CNc1ccc([N+](=O)[O-])cc1", "note": "(configuration not stated)", "Potency": "inconclusive: 14.1 µM [quencher, side channel, partial curve]"},
      {"smiles": "O=C(CSc1nnc(-c2ccccc2)c(-c2ccccc2)n1)NC1CCS(=O)(=O)C1", "note": "(configuration not stated)", "Potency": "inconclusive: 10 µM [quencher, side channel, partial curve]"},
      {"smiles": "c1ccc2nc(-c3ccncc3)ccc2c1", "Potency": "inconclusive: 25.1 µM [quencher, side channel, single point]"},
      {"smiles": "COc1ccc(NC(=S)N2CCC(c3nc4ccccc4[nH]3)CC2)c(OC)c1", "Potency": "inconclusive: 44.7 µM [fluorescent, side channel, partial curve, poor fit]"},
      {"smiles": "COCCNC(=O)c1cc(-c2ccncc2)nc2ccc(S(=O)(=O)N3CCOCC3)cc12", "Potency": "inconclusive: 15.8 µM [quencher, side channel, partial curve]"},
      {"smiles": "Cc1cccn2c(=O)c(/C=C(\\C#N)C(=O)NCc3ccco3)c(N3CCCCCC3)nc12", "Potency": "inconclusive: 15.8 µM [quencher, side channel, partial curve]"},
      {"smiles": "CCn1c(C)cc(/C=C2/NC(=O)N(Cc3ccccc3F)C2=O)c1C", "activity change, negative = inhibition": "inactive: 41.1%"},
      {"smiles": "COC(=O)/C=C/CSC1=N/C(=C/c2ccc(-n3cncn3)cc2)C(=O)N1", "Potency": "inconclusive: 1.12 µM [quencher, full curve]"},
      {"smiles": "COc1ccc(/C=N/NC(=O)c2ccc(CSc3nc(C)cc(C)n3)cc2)c(OC)c1OC", "activity change, negative = inhibition": "inactive: -1.97%"},
      {"smiles": "Cc1ccc(N2CC(C(=O)Nc3ccc(C)c(S(=O)(=O)N(C)C)c3)CC2=O)cc1", "note": "(configuration not stated)", "Potency": "inconclusive: 28.2 µM [quencher, side channel, single point]"},
      {"smiles": "Cc1cccc2c1N(CCCOc1ccc(C(C)(C)C)cc1)C(=O)C2=O", "activity change, negative = inhibition": "inactive: -1.55%"},
      {"smiles": "CC(C)(C)C(=O)Nc1cc(NC(=O)C(C)(C)C)cc(C(=O)NNC(=O)c2ccncc2)c1", "activity change, negative = inhibition": "inactive: -3.12%"},
      {"smiles": "Cc1ccc2cc(CN(CC(C)C)S(=O)(=O)c3ccccc3)c(=O)[nH]c2c1", "Potency": "inconclusive: 39.8 µM [fluorescent, side channel, single point]"},
      {"smiles": "CN1/C(=C/c2cc[n+](C)c3ccccc23)C=Cc2ccccc21", "Potency": "inconclusive: 2.24 µM [quencher, side channel, full curve]"},
      {"smiles": "Cc1ccc(-n2c(=O)[nH]c3ncccc3c2=O)cc1", "Potency": "inconclusive: 25.1 µM [fluorescent, side channel, single point]"},
      {"smiles": "CNc1ncc(C(=O)c2ccc(Br)cc2)s1", "Potency": "inconclusive: 12.6 µM [quencher, side channel, partial curve]"},
      {"smiles": "CNC(=O)c1[nH]cnc1C(=O)Nc1ccc(OC)cc1", "activity change, negative = inhibition": "inactive: -5.18%"},
      {"smiles": "Cc1ccc(-n2c(Cc3noc4ccccc34)n[nH]c2=S)cc1", "activity change, negative = inhibition": "inactive: -19.9%"},
      {"smiles": "CC1CC(C)CN(C(=O)COC(=O)CCCN2C(=O)c3cccc4cccc(c34)C2=O)C1", "note": "(configuration not stated)", "Potency": "inconclusive: 15.8 µM [quencher, partial curve]"},
      {"smiles": "COc1ccc(C(=NNc2ccccc2C(=O)O)c2ccc(OC)cc2)cc1", "Potency": "inconclusive: 35.5 µM [quencher, side channel, single point]"},
      {"smiles": "Cc1ccc(N/C(N)=N/c2nc(CSc3nnc(C)s3)cc(=O)[nH]2)c(C)c1", "activity change, negative = inhibition": "inactive: 0.941%"},
      {"smiles": "CCOc1ncccc1C(=O)OCC(=O)c1ccc(Cl)s1", "Potency": "inconclusive: 15.8 µM [quencher, side channel, partial curve]"}
    ]}
  ]
}
